Reference: a compilation of properties of binary mixtures (doi:10.1080/00319104.2013.782546)
Some of these densities may be calculated back from excess volumes.

Assay: xn = mol fraction of the nth substance listed
Conditions: 283.15 K, 101 kPa

CCC[n+]1cccc(C)c1.O=S(=O)([N-]S(=O)(=O)C(F)(F)F)C(F)(F)F + Cc1cccc(C)c1
Conditions | mass density [kg/m3]
x2 = 0 | 1461.7
x2 = 0.0566 | 1448.3
x2 = 0.1978 | 1410.1
x2 = 0.3051 | 1375.9
x2 = 0.4105 | 1335.9
x2 = 0.5066 | 1293.2
x2 = 0.6313 | 1224.7

CCOS(=O)(=O)[O-].CC[n+]1cccc(C)c1 + Cc1cccc(C)c1
Conditions | mass density [kg/m3]
x2 = 0.0505 | 1220.9
x2 = 0.1027 | 1210.2
x2 = 0.1213 | 1206.5
x2 = 0.1433 | 1202.2
x2 = 0.1631 | 1197.8
x2 = 0.1962 | 1192.6
x2 = 0.2016 | 1191.4

CC[n+]1cccc(C)c1.O=S(=O)([N-]S(=O)(=O)C(F)(F)F)C(F)(F)F + Cc1cccc(C)c1
Conditions | mass density [kg/m3]
x2 = 0 | 1503.1
x2 = 0.0511 | 1489.1
x2 = 0.0972 | 1476.1
x2 = 0.2 | 1444
x2 = 0.3014 | 1408.2
x2 = 0.4038 | 1365
x2 = 0.4441 | 1346.7
x2 = 0.4999 | 1319.9
x2 = 0.5239 | 1307.4
x2 = 0.5446 | 1295.4
x2 = 0.5784 | 1276.7

CC[n+]1ccn(C)c1.O=S(=O)([N-]S(=O)(=O)C(F)(F)F)C(F)(F)F + Cc1cccc(C)c1
Conditions | mass density [kg/m3]
x2 = 0.0473 | 1519.6
x2 = 0.0479 | 1519.6
x2 = 0.1005 | 1502.6
x2 = 0.1992 | 1467.9
x2 = 0.3004 | 1427.9
x2 = 0.3968 | 1384.8
x2 = 0.42 | 1373.2
x2 = 0.462 | 1351.8

CCCCCC[n+]1ccn(C)c1.O=S(=O)([N-]S(=O)(=O)C(F)(F)F)C(F)(F)F + Cc1ccccc1
Conditions | mass density [kg/m3]
x2 = 0 | 1385.9
x2 = 0.0492 | 1378.1
x2 = 0.2018 | 1351
x2 = 0.4026 | 1300.8
x2 = 0.4983 | 1269.4
x2 = 0.811 | 1095.9

CCC[n+]1cccc(C)c1.O=S(=O)([N-]S(=O)(=O)C(F)(F)F)C(F)(F)F + Cc1ccccc1
Conditions | mass density [kg/m3]
x2 = 0 | 1461.7
x2 = 0.1 | 1440.3
x2 = 0.1979 | 1417
x2 = 0.5118 | 1310.5
x2 = 0.6041 | 1264.5
x2 = 0.6579 | 1233.4
x2 = 0.6846 | 1216.2
x2 = 0.7178 | 1193.1

CCOS(=O)(=O)[O-].CC[n+]1cccc(C)c1 + Cc1ccccc1
Conditions | mass density [kg/m3]
x2 = 0 | 1230.7
x2 = 0.0517 | 1222.6
x2 = 0.1036 | 1214.7
x2 = 0.2023 | 1195.3
x2 = 0.2751 | 1180.3
x2 = 0.3501 | 1163.9
x2 = 0.3661 | 1160.3

CC[n+]1cccc(C)c1.O=S(=O)([N-]S(=O)(=O)C(F)(F)F)C(F)(F)F + Cc1ccccc1
Conditions | mass density [kg/m3]
x2 = 0 | 1503.1
x2 = 0.0484 | 1492.1
x2 = 0.1002 | 1479.5
x2 = 0.2005 | 1452
x2 = 0.4093 | 1379.8
x2 = 0.4915 | 1344.2
x2 = 0.6565 | 1250.5
x2 = 0.6882 | 1228.4
x2 = 0.7161 | 1207.6

CC[n+]1ccn(C)c1.O=S(=O)([N-]S(=O)(=O)C(F)(F)F)C(F)(F)F + Cc1ccccc1
Conditions | mass density [kg/m3]
x2 = 0 | 1534
x2 = 0.047 | 1521.8
x2 = 0.2953 | 1443.8
x2 = 0.3983 | 1402.6
x2 = 0.5018 | 1353
x2 = 0.5968 | 1298.1
x2 = 0.6192 | 1283.4

CCCCCC[n+]1ccn(C)c1.O=S(=O)([N-]S(=O)(=O)C(F)(F)F)C(F)(F)F + Cc1ccccc1C
Conditions | mass density [kg/m3]
x2 = 0 | 1385.9
x2 = 0.1029 | 1367.6
x2 = 0.217 | 1342.9
x2 = 0.299 | 1322.6
x2 = 0.3413 | 1310.9
x2 = 0.7506 | 1132.3

CCC[n+]1cccc(C)c1.O=S(=O)([N-]S(=O)(=O)C(F)(F)F)C(F)(F)F + Cc1ccccc1C
Conditions | mass density [kg/m3]
x2 = 0 | 1461.7
x2 = 0.0479 | 1450.4
x2 = 0.1039 | 1435.9
x2 = 0.2077 | 1407.1
x2 = 0.4059 | 1341.7
x2 = 0.4992 | 1303
x2 = 0.588 | 1258.5
x2 = 0.6238 | 1238

CCOS(=O)(=O)[O-].CC[n+]1cccc(C)c1 + Cc1ccccc1C
Conditions | mass density [kg/m3]
x2 = 0 | 1230.7
x2 = 0.0495 | 1222.1
x2 = 0.1048 | 1212.4
x2 = 0.1561 | 1201.7
x2 = 0.2007 | 1192.4
x2 = 0.232 | 1186.9
x2 = 0.2524 | 1182.4

CC[n+]1cccc(C)c1.O=S(=O)([N-]S(=O)(=O)C(F)(F)F)C(F)(F)F + Cc1ccccc1C
Conditions | mass density [kg/m3]
x2 = 0 | 1503.1
x2 = 0.051 | 1490
x2 = 0.1001 | 1476.4
x2 = 0.1983 | 1446.7
x2 = 0.2975 | 1412.5
x2 = 0.4008 | 1370.8
x2 = 0.5039 | 1322.7
x2 = 0.6025 | 1268.4

CC[n+]1ccn(C)c1.O=S(=O)([N-]S(=O)(=O)C(F)(F)F)C(F)(F)F + Cc1ccccc1C
Conditions | mass density [kg/m3]
x2 = 0 | 1534
x2 = 0.052 | 1518.7
x2 = 0.1008 | 1503.8
x2 = 0.1995 | 1470.6
x2 = 0.3002 | 1432.1
x2 = 0.5055 | 1334.3
x2 = 0.5062 | 1333.7
x2 = 0.5929 | 1283.1
